Data as given in the CheMixHub viscosity set.
This continues a long series; more values of the same kind are listed elsewhere.

Test: xn = mol fraction of the nth substance listed

NCCO + O
Settings	viscosity [mPa·s]
298.15 K, 101 kPa, x1 = 0.0313	1.246
298.15 K, 101 kPa, x1 = 0.0674	1.75
298.15 K, 101 kPa, x1 = 0.1102	2.554
298.15 K, 101 kPa, x1 = 0.1626	3.786
298.15 K, 101 kPa, x1 = 0.2322	5.801
298.15 K, 101 kPa, x1 = 0.3032	8.459
298.15 K, 101 kPa, x1 = 0.4194	13.04
298.15 K, 101 kPa, x1 = 0.4653	14.71
298.15 K, 101 kPa, x1 = 0.5382	16.83
298.15 K, 101 kPa, x1 = 0.622	17.92
298.15 K, 101 kPa, x1 = 0.7228	19.19
298.15 K, 101 kPa, x1 = 0.8446	19.46
303.15 K, 101 kPa, x1 = 0.0313	1.088
303.15 K, 101 kPa, x1 = 0.0674	1.49
303.15 K, 101 kPa, x1 = 0.1626	3.086
303.15 K, 101 kPa, x1 = 0.2322	4.829
303.15 K, 101 kPa, x1 = 0.3032	6.924
303.15 K, 101 kPa, x1 = 0.4194	10.48
303.15 K, 101 kPa, x1 = 0.4653	11.8
303.15 K, 101 kPa, x1 = 0.5382	13.39
303.15 K, 101.3 kPa, x1 = 0.1122	2.062
303.15 K, 101.3 kPa, x1 = 0.2278	4.543
303.15 K, 101.3 kPa, x1 = 0.3067	6.862
303.15 K, 101.3 kPa, x1 = 0.4076	9.966
303.15 K, 101.3 kPa, x1 = 0.5412	13.27
303.15 K, 101.33 kPa, x1 = 0.0506	1.27
303.15 K, 101.33 kPa, x1 = 0.069	1.48
308.15 K, 101.3 kPa, x1 = 0.2278	3.788
308.15 K, 101.3 kPa, x1 = 0.3067	5.579
308.15 K, 101.3 kPa, x1 = 0.4076	7.974
308.15 K, 101.3 kPa, x1 = 0.5412	10.5
308.15 K, 101.3 kPa, x1 = 0.6257	11.52
308.15 K, 101.3 kPa, x1 = 0.7264	12.1
308.15 K, 101.3 kPa, x1 = 0.8486	12.37
313.15 K, 100 kPa, x1 = 0.2	2.84
313.15 K, 100 kPa, x1 = 0.4	6.48
313.15 K, 100 kPa, x1 = 0.5	8.13
313.15 K, 100 kPa, x1 = 0.7	9.92
313.15 K, 101 kPa, x1 = 0.0313	0.871
313.15 K, 101 kPa, x1 = 0.2322	3.473
313.15 K, 101 kPa, x1 = 0.3032	4.745
313.15 K, 101 kPa, x1 = 0.4194	7.014
313.15 K, 101 kPa, x1 = 0.5382	8.808
313.15 K, 101 kPa, x1 = 0.622	9.592
313.15 K, 101 kPa, x1 = 0.7228	10.32
313.15 K, 101 kPa, x1 = 0.8446	10.46
313.15 K, 101.3 kPa, x1 = 0.1122	1.573
313.15 K, 101.3 kPa, x1 = 0.2278	3.228
313.15 K, 101.3 kPa, x1 = 0.3067	4.673
313.15 K, 101.3 kPa, x1 = 0.4076	6.564
313.15 K, 101.3 kPa, x1 = 0.5412	8.588
313.15 K, 101.3 kPa, x1 = 0.6257	9.367
313.15 K, 101.3 kPa, x1 = 0.7264	9.85
313.15 K, 101.33 kPa, x1 = 0.0506	1.002
313.15 K, 101.33 kPa, x1 = 0.069	1.161
313.15 K, 101.33 kPa, x1 = 0.11	1.616
318.15 K, 101.3 kPa, x1 = 0.1122	1.373
318.15 K, 101.3 kPa, x1 = 0.2278	2.732
318.15 K, 101.3 kPa, x1 = 0.3067	3.886
318.15 K, 101.3 kPa, x1 = 0.4076	5.389
318.15 K, 101.3 kPa, x1 = 0.5412	6.936
318.15 K, 101.3 kPa, x1 = 0.7264	7.97
318.15 K, 101.3 kPa, x1 = 0.8486	8.127
323.15 K, 100 kPa, x1 = 0.1	1.21
323.15 K, 100 kPa, x1 = 0.2	2.16
323.15 K, 100 kPa, x1 = 0.3	3.36
323.15 K, 100 kPa, x1 = 0.5	5.65
323.15 K, 100 kPa, x1 = 0.6	6.38
323.15 K, 100 kPa, x1 = 0.7	6.84
323.15 K, 100 kPa, x1 = 0.8	6.94
323.15 K, 100 kPa, x1 = 0.9	6.93
323.15 K, 101.33 kPa, x1 = 0.0506	0.8163
323.15 K, 101.33 kPa, x1 = 0.069	0.936
323.15 K, 101.33 kPa, x1 = 0.11	1.277
323.15 K, 101.33 kPa, x1 = 0.112	1.26
